Experimental data: article PMC9911399, “Two distinct binding modes provide the RNA-binding protein RbFox with extraordinary sequence specificity”
Where a chain is given by its changes, count along the chain named. Some of the results follow.

T1: RBFOX1 RRM RbFoxmut (Fox-RRM*) (Homo sapiens, UniProt Q9NWB1 109-208, R118D;E147R;N151S;E152T)
T1 sequence: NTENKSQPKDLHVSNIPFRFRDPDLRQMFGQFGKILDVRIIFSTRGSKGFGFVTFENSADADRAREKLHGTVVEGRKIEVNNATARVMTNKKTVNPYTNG

B1: GGUACUU (DNA:RNA)
RNA: GGGAGACCGGAAUUCAGAUUGUCCGGUACUUUUAAAUCCCGUCGUAGCCACCA
DNA 1: CAATCTGAATTCCGGTCTCCC
DNA 2: TGGTGGCTACGACGGGATT
B2: GUCUAAC (DNA:RNA)
RNA: B1 RNA with G26U, U27C, A28U, C29A, U30A, U31C
DNA 1: CAATCTGAATTCCGGTCTCCC
DNA 2: TGGTGGCTACGACGGGATT
B3: GUACACA (DNA:RNA)
RNA: B1 RNA with G26U, U27A, A28C, C29A, U30C, U31A
DNA 1: CAATCTGAATTCCGGTCTCCC
DNA 2: TGGTGGCTACGACGGGATT
B4: UAUCUUA (DNA:RNA)
RNA: B1 RNA with G25U, G26A, A28C, C29U, U31A
DNA 1: CAATCTGAATTCCGGTCTCCC
DNA 2: TGGTGGCTACGACGGGATT
B5: UUGGUUA (DNA:RNA)
RNA: B1 RNA with G25U, G26U, U27G, A28G, C29U, U31A
DNA 1: CAATCTGAATTCCGGTCTCCC
DNA 2: TGGTGGCTACGACGGGATT
B6: UGGUUGA (DNA:RNA)
RNA: B1 RNA with G25U, U27G, A28U, C29U, U30G, U31A
DNA 1: CAATCTGAATTCCGGTCTCCC
DNA 2: TGGTGGCTACGACGGGATT
B7: CGGCUCA (DNA:RNA)
RNA: B1 RNA with G25C, U27G, A28C, C29U, U30C, U31A
DNA 1: CAATCTGAATTCCGGTCTCCC
DNA 2: TGGTGGCTACGACGGGATT
B8: CCUGAGG (DNA:RNA)
RNA: B1 RNA with G25C, G26C, A28G, C29A, U30G, U31G
DNA 1: CAATCTGAATTCCGGTCTCCC
DNA 2: TGGTGGCTACGACGGGATT
B9: UAAUGGA (DNA:RNA)
RNA: GGGAGACCGGAAUUCAGAUUGUCCUAAUGGAUUAAAUCCCGUCGUAGCCACCA
DNA 1: CAATCTGAATTCCGGTCTCCC
DNA 2: TGGTGGCTACGACGGGATT
B10: AGUCGAC (DNA:RNA)
RNA: B1 RNA with G25A, A28C, C29G, U30A, U31C
DNA 1: CAATCTGAATTCCGGTCTCCC
DNA 2: TGGTGGCTACGACGGGATT
B11: CAAGUCG (DNA:RNA)
RNA: B9 RNA with U25C, U28G, G29U, G30C, A31G
DNA 1: CAATCTGAATTCCGGTCTCCC
DNA 2: TGGTGGCTACGACGGGATT
B12: GUUCGCG (DNA:RNA)
RNA: B1 RNA with G26U, A28C, C29G, U30C, U31G
DNA 1: CAATCTGAATTCCGGTCTCCC
DNA 2: TGGTGGCTACGACGGGATT
B13: GCGAAAU (DNA:RNA)
RNA: B1 RNA with G26C, U27G, C29A, U30A
DNA 1: CAATCTGAATTCCGGTCTCCC
DNA 2: TGGTGGCTACGACGGGATT
B14: UUGCCAG (DNA:RNA)
RNA: B1 RNA with G25U, G26U, U27G, A28C, U30A, U31G
DNA 1: CAATCTGAATTCCGGTCTCCC
DNA 2: TGGTGGCTACGACGGGATT
B15: GCGCUAC (DNA:RNA)
RNA: B1 RNA with G26C, U27G, A28C, C29U, U30A, U31C
DNA 1: CAATCTGAATTCCGGTCTCCC
DNA 2: TGGTGGCTACGACGGGATT
B16: CCCUAGA (DNA:RNA)
RNA: B9 RNA with U25C, A26C, A27C, G29A
DNA 1: CAATCTGAATTCCGGTCTCCC
DNA 2: TGGTGGCTACGACGGGATT
B17: UACUCGA (DNA:RNA)
RNA: B9 RNA with A27C, G29C
DNA 1: CAATCTGAATTCCGGTCTCCC
DNA 2: TGGTGGCTACGACGGGATT
B18: ACGAUGG (DNA:RNA)
RNA: B1 RNA with G25A, G26C, U27G, C29U, U30G, U31G
DNA 1: CAATCTGAATTCCGGTCTCCC
DNA 2: TGGTGGCTACGACGGGATT
B19: UUCUGAA (DNA:RNA)
RNA: B9 RNA with A26U, A27C, G30A
DNA 1: CAATCTGAATTCCGGTCTCCC
DNA 2: TGGTGGCTACGACGGGATT
B20: ACUGCAG (DNA:RNA)
RNA: B1 RNA with G25A, G26C, A28G, U30A, U31G
DNA 1: CAATCTGAATTCCGGTCTCCC
DNA 2: TGGTGGCTACGACGGGATT

molecular target: T1, RBFOX1 RRM RbFoxmut (Fox-RRM*); assay: EMSA; HiTS-Eq, 1 nM pool, 10 min; buffer printed only for the single-RNA assays: 10 mM Tris pH 7.5, 150 mM NaCl, 3.4 mM EDTA, 0.001% NP-40, 30 C; settings: tags: His6 N-terminal (pET28a); label: 5' 32P
Method in brief: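 Purified RbFox RRM, wild type or mutant, was incubated for 10 min in 50 µL with 1 nM of a 5′-radiolabelled RNA pool carrying 7 randomized nucleotides, whose flanks were annealed to DNA oligonucleotides, over a series of increasing protein concentrations. Unbound RNA was resolved on 8% native PAGE, cut out, reverse-transcribed, barcoded by PCR and sequenced on an Illumina HiSeq 2500. Relative association constants were derived from changes in read counts for each RNA species versus the control reaction and normalised to the cognate motif.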

Binder	binding signal
B1	0.0675 KA relative to UGCAUGU
B2	0.0773 KA relative to UGCAUGU
B3	0.0823 KA relative to UGCAUGU
B4	0.0802 KA relative to UGCAUGU
B5	0.155 KA relative to UGCAUGU
B6	0.318 KA relative to UGCAUGU
B7	0.0753 KA relative to UGCAUGU
B8	0.0748 KA relative to UGCAUGU
B9	0.0542 KA relative to UGCAUGU
B10	0.0833 KA relative to UGCAUGU
B11	0.0872 KA relative to UGCAUGU
B12	0.113 KA relative to UGCAUGU
B13	0.0864 KA relative to UGCAUGU
B14	0.0987 KA relative to UGCAUGU
B15	0.0905 KA relative to UGCAUGU
B16	0.116 KA relative to UGCAUGU
B17	0.0874 KA relative to UGCAUGU
B18	0.103 KA relative to UGCAUGU
B19	0.0579 KA relative to UGCAUGU
B20	0.0925 KA relative to UGCAUGU
